These results are taken from a collection of fitness landscapes (doi:10.1126/science.1257360).

The list shows a part of the results.

B1: PhoQ; a variant is named by its letters at X, in order, P23837 (parent)
chain: MKKLLRLFFPLSLRVRFLLATAAVVLVLSLAYGMVALIGYSVSFDKTTFRLLRGESNLFYTLAKWENNKLHVELPENIDKQSPTMTLIYDENGQLLWAQRDVPWLMKMIQPDWLKSNGFHEIEADVNDTSLLLSGDHSIQQQLQEVREDDDDAEMTHSVAVNVYPATSRMPKLTIVVVDTIPVELKSSYMVWSWFIYVLSANLLLVIPLLWVAAWWSLRPIEALAKEVRELEEHNRELLNPATTRELTSLVRNLNRLLKSERERYDKYRTTLTDLTHSLKTPLXXLQXXLRSLRSEKMSVSDAEPVMLEQISRISQQIGYYLHRASMRGGTLLSRELHPVAPLLDNLTSALNKVYQRKGVNISLDISPEISFVGEQNDFVEVMGNVLDNACKYCLEFVEISARQTDEHLYIVVEDDGPGIPLSKREVIFDRGQRVDTLRPGQGVGLAVAREITEQYEGKIVAGESMLGGARMEVIFGRQHSAPKDE

The test covers variants of B1. Nature of the test: enrichment ratio after two sorts for PhoP signalling (ratio (wild type AVST 3.29)); higher = more functional. The note with it: with PhoP (E. coli).
Take YYSM: the enrichment ratio was not above 0.25.

Turning to GRFV, the enrichment ratio was not above 0.25.

As to RLRA, the enrichment ratio is not above 0.25.

IIKR: the enrichment ratio was not above 0.25.

In the case of IAMH, the enrichment ratio is not above 0.25.

For the variant MLKR, the enrichment ratio is not above 0.25.

WHSC: the enrichment ratio was not above 0.25.

Take KHGM: the enrichment ratio was not above 0.25.

Consider AMGE, for which the enrichment ratio is 9.88.

VMCQ: the enrichment ratio is not above 0.25.

Take YMFL: the enrichment ratio was not above 0.25.

With VPII, the enrichment ratio was not above 0.25.

For MSPL, the enrichment ratio was not above 0.25.

Regarding PEPE, the enrichment ratio was not above 0.25.

Turning to LKQQ, the enrichment ratio was not above 0.25.

Consider MPNS, for which the enrichment ratio was not above 0.25.

Take WSVE: the enrichment ratio was not above 0.25.

Turning to KYEC, the enrichment ratio was not above 0.25.

As for KCWG, the enrichment ratio was not above 0.25.

In the case of RKRI, the enrichment ratio was not above 0.25.

Turning to LCTW, the enrichment ratio was not above 0.25.

On to PFDR, for which the enrichment ratio is not above 0.25.

For the variant DYLN, the enrichment ratio is not above 0.25.

For the variant PLPW, the enrichment ratio came to 0.375.

Take VDIE: the enrichment ratio was not above 0.25.

With LTKK, the enrichment ratio is not above 0.25.

As for TWPY, the enrichment ratio is not above 0.25.

Regarding VQKS, the enrichment ratio was not above 0.25.

Regarding QDWG, the enrichment ratio is not above 0.25.

For WTYI, the enrichment ratio was not above 0.25.

Turning to SQVY, the enrichment ratio turned out to be 14.2.

For the variant LMGT, the enrichment ratio was not above 0.25.

Turning to PHTI, the enrichment ratio was not above 0.25.

For the variant SQSM, the enrichment ratio turned out to be 15.9.

Turning to NWSC, the enrichment ratio is not above 0.25.

On to PRDS, for which the enrichment ratio is not above 0.25.

As to EGPK, the enrichment ratio was not above 0.25.

On to NSFG, for which the enrichment ratio was not above 0.25.

Consider NSVR, for which the enrichment ratio was not above 0.25.

With WAYC, the enrichment ratio was not above 0.25.

TCDI: the enrichment ratio was not above 0.25.

KENF: the enrichment ratio is not above 0.25.

For MQEW, the enrichment ratio is not above 0.25.

As for GMPY, the enrichment ratio was not above 0.25.

Turning to KPHK, the enrichment ratio is not above 0.25.

As to KDVC, the enrichment ratio is not above 0.25.

As to RGFK, the enrichment ratio is not above 0.25.

For MPAR, the enrichment ratio is not above 0.25.

As for YKKW, the enrichment ratio was not above 0.25.

Take DLLI: the enrichment ratio is not above 0.25.

In the case of VINP, the enrichment ratio was not above 0.25.

For the variant TNRR, the enrichment ratio was not above 0.25.

On to NQGN, for which the enrichment ratio is not above 0.25.

As to GCVY, the enrichment ratio was not above 0.25.

On to NCQG, for which the enrichment ratio is not above 0.25.

For MNKF, the enrichment ratio was not above 0.25.

As to PINK, the enrichment ratio was not above 0.25.

Regarding HCFG, the enrichment ratio is not above 0.25.

In the case of ESRT, the enrichment ratio was not above 0.25.

Consider VKTG, for which the enrichment ratio was not above 0.25.

Consider MGIC, for which the enrichment ratio is not above 0.25.

In the case of YPND, the enrichment ratio was not above 0.25.

Regarding TYNH, the enrichment ratio was not above 0.25.

As to EVIK, the enrichment ratio is not above 0.25.

RLKF: the enrichment ratio was not above 0.25.

As to VYDS, the enrichment ratio is not above 0.25.

Turning to HSAG, the enrichment ratio was not above 0.25.

Turning to KFSR, the enrichment ratio is not above 0.25.

Regarding HIYP, the enrichment ratio was not above 0.25.

As for SITK, the enrichment ratio was 6.98.

Consider PQSG, for which the enrichment ratio was not above 0.25.

Regarding PGDF, the enrichment ratio was not above 0.25.

As for SWYK, the enrichment ratio is not above 0.25.

As for LNWC, the enrichment ratio was not above 0.25.

For EIRY, the enrichment ratio was not above 0.25.

For the variant TLSK, the enrichment ratio was 6.09.

For the variant NSTT, the enrichment ratio was not above 0.25.

Regarding TLIW, the enrichment ratio was not above 0.25.

As for MISG, the enrichment ratio was 1.79.

For LNMH, the enrichment ratio is not above 0.25.

In the case of ESKG, the enrichment ratio was not above 0.25.

On to IRDH, for which the enrichment ratio is not above 0.25.

With LLWL, the enrichment ratio was not above 0.25.

For the variant RDWM, the enrichment ratio was not above 0.25.

Regarding FYRC, the enrichment ratio is not above 0.25.

For ITCI, the enrichment ratio is not above 0.25.

Consider RSWY, for which the enrichment ratio is not above 0.25.

GACT: the enrichment ratio is not above 0.25.

NAGA: the enrichment ratio is not above 0.25.

In the case of KHDI, the enrichment ratio is not above 0.25.

With LGMP, the enrichment ratio is not above 0.25.

HWSD: the enrichment ratio was not above 0.25.

Regarding LHQE, the enrichment ratio was not above 0.25.

HAPH: the enrichment ratio was not above 0.25.

Regarding SRYT, the enrichment ratio is not above 0.25.

For the variant HEPA, the enrichment ratio was not above 0.25.

For NAYR, the enrichment ratio was not above 0.25.

On to FTPW, for which the enrichment ratio is not above 0.25.

For REGT, the enrichment ratio is not above 0.25.

For LQIF, the enrichment ratio was not above 0.25.

As to TMVS, the enrichment ratio came out at 1.41.

For the variant EIHN, the enrichment ratio was not above 0.25.

As for DWIG, the enrichment ratio is not above 0.25.

QETK: the enrichment ratio was not above 0.25.

Consider YPTA, for which the enrichment ratio is not above 0.25.

For the variant RKAS, the enrichment ratio is not above 0.25.

With SMRG, the enrichment ratio was not above 0.25.

In the case of DSEQ, the enrichment ratio was not above 0.25.

For ANVF, the enrichment ratio is 6.52.

Take TCLT: the enrichment ratio stood at 4.19.

As to WYAC, the enrichment ratio was not above 0.25.

On to FAWS, for which the enrichment ratio was not above 0.25.

FFFY: the enrichment ratio is not above 0.25.

Regarding DTLM, the enrichment ratio was not above 0.25.

As for AYIP, the enrichment ratio is not above 0.25.

Take HIYG: the enrichment ratio is not above 0.25.

As for QDLK, the enrichment ratio is not above 0.25.

As for ITSR, the enrichment ratio is not above 0.25.

Take ANGL: the enrichment ratio came out at 4.99.

Turning to FQPK, the enrichment ratio is not above 0.25.

Regarding HFFC, the enrichment ratio was not above 0.25.

In the case of LLKT, the enrichment ratio is not above 0.25.

For SGEK, the enrichment ratio was not above 0.25.

As to GHRM, the enrichment ratio was not above 0.25.

Consider LDKL, for which the enrichment ratio was not above 0.25.

With YYCR, the enrichment ratio is not above 0.25.

As to KAVN, the enrichment ratio is not above 0.25.

TNKS: the enrichment ratio was not above 0.25.

For the variant YCFH, the enrichment ratio was not above 0.25.

For TWVN, the enrichment ratio was not above 0.25.

On to WEAG, for which the enrichment ratio is not above 0.25.

FASM: the enrichment ratio was not above 0.25.

Regarding FSVN, the enrichment ratio is not above 0.25.

For KWHL, the enrichment ratio is not above 0.25.

Consider EHCH, for which the enrichment ratio is not above 0.25.

As for WFHH, the enrichment ratio was not above 0.25.

Take FSNL: the enrichment ratio was not above 0.25.

Take GRKP: the enrichment ratio is not above 0.25.

For SRTW, the enrichment ratio was not above 0.25.

With SYKY, the enrichment ratio is not above 0.25.

Turning to QNVC, the enrichment ratio is not above 0.25.

On to MSCY, for which the enrichment ratio amounted to 1.59.

As to DHVK, the enrichment ratio is not above 0.25.

Take HRKY: the enrichment ratio was not above 0.25.

With SACF, the enrichment ratio was 8.75.

As to IEFP, the enrichment ratio is not above 0.25.

On to WLWQ, for which the enrichment ratio was not above 0.25.

Take IRYT: the enrichment ratio is not above 0.25.

With DWRD, the enrichment ratio is not above 0.25.

On to EMQV, for which the enrichment ratio was not above 0.25.

As to QKGS, the enrichment ratio is not above 0.25.

As to RHMS, the enrichment ratio is not above 0.25.

Take WVSY: the enrichment ratio was not above 0.25.
